Source: the supplement of paper PMC12632987
Whole data set: some 4,500 sequences, median “median log2 fold change of GCK-ALFA target abundance (FLAG IP / Myc IP barcode read proportion)” near 0.078, cut for the lowest 2% near -0.6. This is one part of the list.

B1: GBRAP_43_5737 (protein)
chain: MEEVLDAAAETALLALESEELTDETKIKILRDFFEVAADESKENKELYKAAAEALKKHQDLEAVKKAAELAKEIAKKDPKYKEVFEKAAEYLEKLAKKLE
B2: GBRAP_150_3934 (protein)
chain: DLEELLLLAESVADLLDLALNEGIDRLKALKRAQELLKDLIKEADEELKEIAKKAQELIKKAIKLEEEGGEEKEIKKLLKKAQELAKELAKELEKKIEEE
B3: GBRAP_125_3097 (protein)
chain: HMEELLEALRRIALALGFSEEDAEELARLAREGSLRQTLVALFLAEGEEEVADLVAQLTEEQAAELVRRLAEYLEAHPDLTKEEVVEKAKEIAEELLAKA
B4: GBRAP_166_4895 (protein)
chain: STADAIAQIDALADDVIARIAELTPEELLAAFVEMAEIVEEAGATPELIAAAAAAFARVARAAVAAGRDWAEVETLVLGAVGYNEKLLDAVEAALAAARA
B5: GBRAP_160_4681 (protein)
chain: SAKVEEAEEELEEEFEEVLSLYDEMTPEQLAAAVRVAFGELKLYLEELGLLTDEVEEVLDEEEERIVDYILANPNITREEFAELLEEAKEEIVEKLKEAA
B6: GBRAP_35_5556 (protein)
chain: SSDEEIVDMMTNTAEDALLTVDEIPVDTAFEIVEKIAKAALEILKKEKENVEGMKRLADATLEALDALIKRLKEEGAPEEKIKRLEELRKEIKEELEKIK
B7: GBRAP_52_6385 (protein)
chain: KVEEAAKLLWEAIKLIMEGGPEEEVKKLAKELLKYDEETLEEAAKLVAERLKELSPEEAEKALEATFKLADILEELGLPEEVASLIEAEIGKAAYEVLQK
B8: GBRAP_125_3127 (protein)
chain: EEERLLADLAELLRALGLDDEDVEEAVRLAREHGLRGTLYAVMLALGWDELADLVAQLTEEQTAAVLREVVARLRANPDLTPEEVRALLLEVARAAVAAS
B9: GBRAP_160_4458 (protein)
chain: SERKEKLIKEVDETRDLAKELIEGESHEQRVVIVEGEFGSFLLDLAEDENVSDELEDEVAEIIDELVEYMRANPDLSEEEIKELIDEAAEKIKEAIEKHL
B10: GBRAP_83_6876 (protein)
chain: KEEITVAGNSDNIEEAFEIAEDLHKEEGYEVTIELVITREDIPKLKEEFKELAEAGVETELEIYLEGATEEEAEELEKELKKIAKEAGVNIKITVHVIEL
B11: GBRAP_160_4173 (protein)
chain: MEKLKEAEKEIEEIFREAVEMMVGQSAEERAAIAAVAFGEVRLLLEEKGLLTDELDEHIDEVEEEVVGYILAHPDLTDEELRELMEEAREKIIEALKKSS
B12: GBRAP_160_4553 (protein)
chain: SEKREEAIKLAEEELKFVLEVVEEESNEEAKIVAIGEFGSLLMEVFLSGEFSDELEDKLGEIGDELEEELEKAVNGSKEEVKKVIERKYKEAIELLKKSE
B13: GBRAP_82_6866 (protein)
chain: MKTVIVLVVARDEEVAAAAKKAIEELKPRIEKLKEKGIEVEFIVTTFDEESLDAGVERAEALKAAHPGAEIEDVAVTRPEKALSELEAALDEIEEEAKEE
B14: GBRAP_160_4048 (protein)
chain: SEKVKKAKEFAKELFDEAIKLMEDLTPEQAANLMDVTVGQAILEAEELGIETTPELDAVLDEARALRDAVLADPSTTVEEVIEAARRLEEKFLKALEKQD
B15: GBRAP_128_3481 (protein)
chain: STEEVVARTRELMRRIRESSLEEVRELAEELVALLGSMDEESREAATEVIIEMLPELSVEKLEVLADVLRELRPKLDPFTATQAADIEIAALEEAEEKEE
B16: GBRAP_160_4470 (protein)
chain: SATVKALTEELRAEVEETLALLRDETPEQIATGVEVTIGSHLMEWSEEGKISDEQEDILIEAMDRVRALAAAERDATPEEMIARLREIVDEAVERILAAA
B17: GBRAP_11_2764 (protein)
chain: KKEKLKEIAELAKELAELLEQILEEGVDDEELLEKAREQLEKLTELVEKYGDEAQKKLAEILREHLEEAEEDPENRERHLREARATALVLSGQFLLEAEE
B18: GBRAP_160_4714 (protein)
chain: SETAEKLQKLIEEEFEKAIELIKGETTEQRAIIVEGTVGEILMEFVENEKVPDELEDEVLKIGDELVATIRANPNLTEEQIKELIKEAEEKMKEAVKKYL
B19: GBRAP_14_3869 (protein)
chain: KEKVLEIIEKAIEDMEKEMVELLPEKAEEIKKVAEEVKKKAKELIEEEDDVEKIMEKITEYALKKVEEAFADLPPEDRAALLATAYNEFAEADLEIEEEL
B20: GBRAP_184_5092 (protein)
chain: TTLEALVEAETREEALEKLEEVLAEAAAQKANLTVLVDLKGLDVETAIELLDLAGAALAAGKVPAVTVGFANAFTEEEIDKILARADEVGVRVVLPIKEE
B21: GBRAP_43_5794 (protein)
chain: DQEWVDGAFDFARTALETPEITDEAKARIVVDAVEIAIDEGTLTPEELKELLEALREAVSPETAARALKEILEEAKKLGAPEELLKVIEEALKEAEKELA
B22: GBRAP_184_5037 (protein)
chain: MIKEEVIEAENLEELKKKLKELEEEMKNFKGDLIVHVKSPKFTEEMVEEIMKTLKRMLEEGYVSSVTVGLDGEMSEEVVDKAVELADEAGIKVVLALSEE
B23: GBRAP_160_4754 (protein)
chain: KEELKKLAEEIKEIFDEYEEILKEVPASEAPTVIRGAMGEVLMEVESSEAASDELEEEIGKIADEAEKEAEANKDKPVEYFIEVLKKAREKILKLIEEKI
B24: GBRAP_184_5071 (protein)
chain: KVFEETIEVENVEEAEEKMDELAEKIKDFKGELVVHVKMPKADKETIEVILDKLKEIKDAGYVTKVTVSFDAEFTEEEVDFALKKADERGINVTVALSEE
B25: GBRAP_78_6672 (protein)
chain: KVEEELDKAIEHLGKAAKILISMNTEEAQDILGKVVDAASILVEAEEGEADLEDVEEALKLVEEAIKEVKKIDTPEAKEAAKHLEEAAKHLKEAIKELKK
B26: GBRAP_160_4780 (protein)
chain: SEKLERLKEAIREAAEEIREAIDTETPAQVVTVARGEGGDILQEAEELGEDNEELLAGLDAQIDALVAALEAAADATPEEKRAIVDAGEAAMIALLEKHT
B27: GBRAP_160_4536 (protein)
chain: AEKVAEALARIDEERDFIISLVDEISTEELINVVDTEFGSFIMWGVEMGIFSDELEDKLDAIRDATIATLKENKDATPEEKKAIITAAADAAKAAIKAAA
B28: GBRAP_9_7124 (protein)
chain: REELVEKLKEVALDMIEDISKVVPELTEEQKEKFKKEVEKLKEEALKDKSLTPEEIKKKFKELIEKIREEVKKIVNEELKKLVDAIALTAEEEVDEIVEE
B29: GBRAP_52_5934 (protein)
chain: MKEKIKELVDELVELVKEGKLEEARKLARRIVKELSEEELKLFIEELAEKARTAPKEEIDYILEAAEILAEELDEGGWDEVLADDLLARVAAAAYENLQK

target: GABARAP, O95166; assay: median log2 fold change of GCK-ALFA target abundance (FLAG IP / Myc IP barcode read proportion) (log2 ratio); each designed protein is fused to an ALFA-tag nanobody in HEK293 cells to bring the named protein to FLAG-tagged glucokinase (GCK); Myc marks an untargeted standard; higher = target protein stabilised (more abundant); conditions: target protein: 3xFLAG-MCP-GCK-ALFA reporter; HEK293 landing pad (RPLP)
How it was run: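 An ALFA-nanobody-fused binder library was recombined into HEK293 landing-pad cells and induced with 2 μg mL^−1 doxycycline. Cells were transfected with a plasmid expressing a FLAG-tagged target and a Myc-tagged standard. After 48 h, lysates underwent anti-FLAG and anti-Myc immunoprecipitation, and circular RNA barcodes were reverse transcribed, amplified and sequenced. Target abundance is the per-binder median log2 ratio of FLAG to Myc barcode read proportions. Barcodes needed ≥10^−7 proportion in both replicates, binders ≥3 barcodes per replicate, and a 10^−6 pseudocount was added; the two replicates were pooled.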

Sequence of GABARAP, O95166 (O95166 whole entry, the tested form may be a part): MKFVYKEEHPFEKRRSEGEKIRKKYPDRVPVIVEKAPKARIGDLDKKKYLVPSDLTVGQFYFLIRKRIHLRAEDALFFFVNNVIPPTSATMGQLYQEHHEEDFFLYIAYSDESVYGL

Question: How did the “median log2 fold change” value turn out when B1 was run?
Answer: The value was 0.26.

Question: How did the “median log2 fold change” value turn out when B2 was run?
Answer: The value was 0.0862.

Question: With B3 as the binder, how does the “median log2 fold change” value read?
Answer: The value was 0.128.

Question: Which “median log2 fold change” value does the source give for B4 here?
Answer: The value was 0.122.

Question: For B5, which “median log2 fold change” value is on record?
Answer: Its value is -0.56.

Question: Which “median log2 fold change” value does the source give for B6 here?
Answer: Its value is 0.109.

Question: B7 was tested. Which “median log2 fold change” value did it give?
Answer: The value was -0.186.

Question: For B8, which “median log2 fold change” value is on record?
Answer: The value was -0.495.

Question: Which “median log2 fold change” value does the source give for B9 here?
Answer: Its value is -0.285.

Question: For B10, which “median log2 fold change” value is on record?
Answer: The value was 0.191.

Question: B11 was tested. Which “median log2 fold change” value did it give?
Answer: The value was -0.138.

Question: B12 was tested. Which “median log2 fold change” value did it give?
Answer: Its value is -0.205.

Question: With B13 as the binder, how does the “median log2 fold change” value read?
Answer: The value was 0.129.

Question: B14 was tested. Which “median log2 fold change” value did it give?
Answer: Its value is 0.0607.

Question: How did the “median log2 fold change” value turn out when B15 was run?
Answer: The value was 0.0415.

Question: B16 was tested. Which “median log2 fold change” value did it give?
Answer: Its value is -0.0467.

Question: For B17, which “median log2 fold change” value is on record?
Answer: Its value is 0.137.

Question: For B18, which “median log2 fold change” value is on record?
Answer: The value was -0.444.

Question: Which “median log2 fold change” value does the source give for B19 here?
Answer: The value was 0.0483.

Question: How did the “median log2 fold change” value turn out when B20 was run?
Answer: The value was 0.0216.

Question: How did the “median log2 fold change” value turn out when B21 was run?
Answer: Its value is 0.122.

Question: How did the “median log2 fold change” value turn out when B22 was run?
Answer: The value was 0.159.

Question: For B23, which “median log2 fold change” value is on record?
Answer: The value was 0.163.

Question: For B24, which “median log2 fold change” value is on record?
Answer: Its value is 0.274.

Question: With B25 as the binder, how does the “median log2 fold change” value read?
Answer: Its value is 0.135.

Question: With B26 as the binder, how does the “median log2 fold change” value read?
Answer: Its value is 0.196.

Question: How did the “median log2 fold change” value turn out when B27 was run?
Answer: Its value is 0.146.

Question: B28 was tested. Which “median log2 fold change” value did it give?
Answer: The value was 0.136.

Question: With B29 as the binder, how does the “median log2 fold change” value read?
Answer: Its value is -0.0862.
